Out of some 310,000 compounds screened, about 2,200 (0.71%) showed an effect of 50% or more. Effects have a minus sign here. The list shows a part of the results.
Biological target: human ether-à-go-go-related gene (hERG) potassium channel (human, UniProt Q12809)
Assay: primary screen, population patch clamp on CHO cells stably expressing hERG

Chain of human ether-à-go-go-related gene (hERG) potassium channel (Q12809 whole entry, looked up): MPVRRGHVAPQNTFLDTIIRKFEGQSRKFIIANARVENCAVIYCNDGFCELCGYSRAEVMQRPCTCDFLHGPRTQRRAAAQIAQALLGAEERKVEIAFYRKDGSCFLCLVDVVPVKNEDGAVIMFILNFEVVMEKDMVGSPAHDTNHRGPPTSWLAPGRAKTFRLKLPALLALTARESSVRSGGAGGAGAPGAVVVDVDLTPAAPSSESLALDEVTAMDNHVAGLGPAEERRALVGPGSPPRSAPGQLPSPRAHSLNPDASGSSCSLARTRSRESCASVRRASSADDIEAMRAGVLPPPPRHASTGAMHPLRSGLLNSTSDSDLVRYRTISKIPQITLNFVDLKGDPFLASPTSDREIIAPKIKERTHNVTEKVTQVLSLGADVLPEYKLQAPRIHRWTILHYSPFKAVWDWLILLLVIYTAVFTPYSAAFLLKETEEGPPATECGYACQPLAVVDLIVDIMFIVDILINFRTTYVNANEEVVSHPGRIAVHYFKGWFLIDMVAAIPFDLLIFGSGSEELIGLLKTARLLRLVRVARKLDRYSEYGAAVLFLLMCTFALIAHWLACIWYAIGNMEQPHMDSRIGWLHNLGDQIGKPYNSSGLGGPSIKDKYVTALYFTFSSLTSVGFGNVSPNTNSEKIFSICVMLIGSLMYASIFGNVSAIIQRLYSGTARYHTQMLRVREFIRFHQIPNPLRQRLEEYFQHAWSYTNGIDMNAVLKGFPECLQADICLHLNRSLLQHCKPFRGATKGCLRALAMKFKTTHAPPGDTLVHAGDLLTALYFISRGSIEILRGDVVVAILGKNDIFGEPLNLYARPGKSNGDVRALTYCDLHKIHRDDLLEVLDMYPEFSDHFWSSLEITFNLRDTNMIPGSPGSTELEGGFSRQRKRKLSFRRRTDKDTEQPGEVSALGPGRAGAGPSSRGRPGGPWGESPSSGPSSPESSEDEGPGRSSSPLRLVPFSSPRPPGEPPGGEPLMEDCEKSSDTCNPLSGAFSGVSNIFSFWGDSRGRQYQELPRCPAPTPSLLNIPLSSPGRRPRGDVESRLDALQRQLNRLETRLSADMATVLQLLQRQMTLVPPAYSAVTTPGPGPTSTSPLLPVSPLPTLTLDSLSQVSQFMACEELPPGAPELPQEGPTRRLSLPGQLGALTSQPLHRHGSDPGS

SMILES	hERG current change (%, negative = inhibition) at 1uM [%]
COc1cccc(C(=O)NC2CC(C)(C)Cc3c2cnn3-c2cccc(F)c2)c1OC (stereo not drawn)	-2.37
COc1ccc(N2C(=O)C3C(C2=O)C3(c2ccccc2)c2ccccc2)cc1 (stereo not drawn)	12
Cc1ccc(C(=O)Nc2nc(-c3ccccn3)cs2)o1	-1.17
O=C(COC(=O)CNC(=O)c1ccccc1F)NCCC1=CCCCC1	14.7
COc1ccc(C2SCC(C(=O)NCc3ccc(F)cc3)N2C(C)=O)cc1 (stereo not drawn)	-2.31
Cc1ccn(-c2ccc([N+](=O)[O-])cc2)n1	12.7
O=C(Nc1ccc2c(c1)CCCN2C(=O)c1cccs1)c1cccc(F)c1	11.8
COc1cc([N+](=O)[O-])ccc1NC(=O)NCc1cccnc1	-1.89
CC1(C)CC(=O)/C(=C(\O)CCCN2C(=O)c3ccccc3C2=O)C(=NCC(=O)O)C1	8.81
O=C(Cn1cc(S(=O)(=O)Cc2cccc(F)c2)c2ccccc21)N1CCOCC1	7.18
O=C(COc1ccc2c(c1)OCO2)NC12CC3CC(CC(C3)C1)C2	4.39
CCOC(=O)Cn1cc(/C=C/[N+](=O)[O-])c2ccccc21	11.9
O=C(c1cc(-c2ccc(O)cc2)on1)N1CCOCC1	3.69
CCCCNC(=O)CC1N=C2c3ccccc3N=C(SCC(=O)Nc3ccc(OC)cc3)N2C1=O (stereo not drawn)	6.61
O=C(C1Cc2ccccc2O1)N1CCCCC1 (stereo not drawn)	2.49
CC(Sc1nnc(C(C)Oc2ccccc2F)o1)C(=O)NCc1ccc2c(c1)OCO2 (stereo not drawn)	2.55
Cc1cc(=O)[nH]c(SCC(=O)Nc2nc3c(s2)CCCC3)n1	7.85
O=C(O)CN1C(=O)/C(=C\c2cccc(OCc3ccccc3)c2)SC1=S	7.44
O=C(NNC(=S)NCC1CCCO1)c1cccc(S(=O)(=O)N2CCOCC2)c1 (stereo not drawn)	-2.64

SMILES	hERG current change (%, negative = inhibition) at 1uM [%]
Cc1ccc(S(=O)(=O)NC(=O)Nc2ccc(C)cc2C)cc1	10
Cc1ccccc1N1C(=O)N(c2cccc(C(F)(F)F)c2)C2CS(=O)(=O)CC21 (stereo not drawn)	11.3
O=S(=O)(/C=C/c1ccccc1)N1CCN(c2cccc(Cl)c2)CC1	5.1
Cl.O=C(CCN1CCc2ccccc2CC1)c1ccc2c(c1)OCCO2	-32.3
O=C(CN(C(=O)c1csnn1)c1ccccc1F)NC1CCCCC1	-2.12
O/N=C/CCn1c(=S)sc2ccccc21	7.42
COc1ccc(S(=O)(=O)N2CCC(C(N)=O)(N3CCCCC3)CC2)cc1OC	10.3
COc1ccc(C2CC(=O)C=C(NCC3CCCO3)C2)cc1 (stereo not drawn)	5.3
COCCCNC(=S)N/N=C/c1ccccc1O	12.7
CCOC(=O)c1nc(C)nc(Sc2n[nH]c(-c3cc(C(F)(F)F)cc(C(F)(F)F)c3)n2)c1C	8.67
O=C(NCCOC(=O)c1c(F)cccc1Cl)c1c(F)cccc1Cl	13.1
CC1(C(=O)N2CC3(CC(c4cccc(NC(=O)CC(c5ccccc5)c5ccccc5)c4)=NO3)C[C@@H]2C(N)=O)CC1 (stereo partly drawn)	15.2
COc1ccc(OC)c(C2=NOC(C(=O)N3CCCc4ccccc43)C2)c1 (stereo not drawn)	7.77
O=C(COc1ccc(Br)cc1)Nc1ccc(CN2CCOCC2)cc1	-7.52
Cc1ccc(NC(=O)C(C)N=C2NS(=O)(=O)c3ccccc32)cc1 (stereo not drawn)	9.15
CC1CCCCN1C(=O)CSc1nc(-c2ccccc2)cc(=O)[nH]1 (stereo not drawn)	7.24
Cc1ccc(N(Cc2ccccc2)C(=O)c2ccc(F)cc2)cc1	2.45
CCn1c(SCC(=O)N(C)C2CCS(=O)(=O)C2)nnc1-c1cccs1 (stereo not drawn)	9.92
COCCCNC(=O)c1ccc2c(c1)OCO2	-2.46

SMILES	hERG current change (%, negative = inhibition) at 1uM [%]
CCOc1ncccc1C(=O)OCC(=O)NC(=O)NC(C)C	16.9
COc1ccc(-n2ncc3c2CC(C)(C)CC3NC(=O)CCCN2CCCC2=O)cc1 (stereo not drawn)	8.36
Cc1ccc(O)c(-c2cc(C(F)(F)C(F)F)[nH]n2)c1	6.77
CC1CCN(c2ccc(NC(=S)NC(=O)c3ccc(-c4cccc([N+](=O)[O-])c4)o3)cc2)CC1	3.52
CN(C)c1ccc(N=Nc2ccccc2C(=O)OCC(=O)N2CCCC2)cc1	18
CCO/C=C/C(=O)N(C)CCC#N	0.767
CCC(C)(C(=O)NC1CCCCC1)N(Cc1cccs1)C(=O)c1ccc(=O)[nH]c1 (stereo not drawn)	4.66
O=C(/C=C/NNC(=O)c1cccc(Br)c1)c1ccccc1	13.7
COc1ccc(Nc2nnc(-c3ccc(C(N)=O)cc3)c3ccccc23)cc1	14.1
CCC(C)c1ccc(C(C)NC(=S)NC2CCCCC2)cc1 (stereo not drawn)	11.3
Cc1onc(-c2ccccc2)c1C(=O)Nc1nnc(COc2ccc(Cl)cc2)s1	15.7
Cc1cccc2cc3c(NC(=O)C(C)(C)C)nn(CC(C)C)c3nc12	21.5
CCC(=O)c1ccccc1OCCCN1C(=O)NC(C)(C)C1=O	1.4
COc1cc(C(=O)c2ccccc2)c([N+](=O)[O-])cc1OC	11.6
O=C(CSc1cccc(C(F)(F)F)c1)Nc1cc(S(=O)(=O)N2CCCC2)ccc1Cl	4.42
CCOC(=O)c1[nH]c2ccc(C)cc2c1NC(=O)CN1CCCCC1	1.71
CCN(CC)c1ccc(N)cc1	12.8
CCOC(=O)C1CCN(C(=O)c2ccc(N(C)S(C)(=O)=O)cc2)CC1	0.943
NC(=O)C1(N2CCCCC2)CCN(C(=O)CSc2nc3ccccc3o2)CC1	2.97

Source: PMC4336329 (PLoS ONE, 2015)
